Some of the results follow.
Each sequence was assayed on PfSIP2 AP2 domain 1 (GST-tagged) (assay: gcPBM binding intensity (ln(normalized median fluorescence intensity)); higher = stronger DNA binding).
In short: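 For binding intensity, the highest Masliner-normalised natural-log median intensity across replicate spots of either probe orientation was taken. Protein bound to the array was stained with Alexa488 anti-GST antibody and scanned at 488 nm. The protein, GST-tagged P. falciparum DNA-binding domains from E. coli at about 25 μg on average, had been applied for 1 h to an Agilent 4 × 180k array of primer-extended double-stranded 36-bp intergenic genomic probes and negative controls.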

| Sequence | gcPBM binding intensity (ln) |
| --- | --- |
| GGAATAGTAATATATACACACAAATACAGATATATA [CACACA_site4213] | 6.94 |
| AATTGAATTTTAAAAGAAAAAAAAAAAAAAAAATAA [XGTACX_negctrl_site195] | 6.77 |
| TGGAGGTCAGTTCACAGTACCCAGAAACTCTACGGA [XGTACX_site4927] | 6.75 |
| TTTTTTCAATTTTTTTTAAATAAACCACAAAAAAAA [CACACA_negctrl_site1701] | 6.94 |
| TAATGTAAAATTTAGAGTACATAAAAAATTGGATGA [XGTACX_site7225] | 7.07 |
| AAATAAAAAAAGAAACGTACATATATTGGTTTCGTC [XGTACX_site3510] | 6.96 |
| AAACTATAATATATTACACACATATATTTTATAAGT [CACACA_site6460] | 6.92 |
| AACATACATAAACACACACACACACCCACAGAGACA [CACACA_site4430] | 7.23 |
| AAAAAAATAAGTATTGAACAATTAAGGAAAAACATG [GTGCAC_negctrl_site464] | 7.27 |
| CTTATAAAAAAAAAAACATGCAACAGTAAAGAACAA [TGCATGCA_site892] | 7.13 |
| GGTAATTTTTTTTAAATACACACTGAAATGTGAATT [CACACA_site564] | 7.29 |
| CATACAGATATATATACACACATACAGATAAATACA [CACACA_site4592] | 7.21 |
| AAGATTAAAAATTGCACACAAAAATATATTTTCTAT [CACACA_site1305] | 7.41 |
| AAATTATATCATTTATTTTTTTATATTTTTTATATT [CACACA_negctrl_site685] | 6.75 |
| AATTTCCTTTTTTAAAGTACACAAAAGTTCACTTTG [XGTACX_site4460] | 6.83 |
| TATAATTTATTAAGGGGTACATATATTTCATGATAA [XGTACX_site5141] | 7.19 |
| AAAAAAAAAAATATCACACACACATAAATATAAACC [CACACA_site2278] | 7.32 |
| AAATTATATCAATGTTGTACATATTATTTTTTTCTC [XGTACX_site5948] | 6.86 |
| TAGTATAAAATTATGTGTACACAAATATAACTTTTC [XGTACX_site5971] | 7.2 |
| AAAAAAAAAAAAAGGTGTACAAGTATAATTACATAA [XGTACX_site534] | 7.36 |
| TATTTATTGTGATACTTTTATTGTTTAATGATTAAA [CACACA_negctrl_site495] | 6.88 |
| TTGTTAAAAGTATCCATTCTTTATTACTTTTGTTTA [XGTACX_negctrl_site532] | 6.95 |

| Sequence | gcPBM binding intensity (ln) |
| --- | --- |
| TGTACCTTATTAATATATTTAACTCGCCTTATATAC [XGTACX_negctrl_site289] | 7.21 |
| ATTGGGTACAAATACACACACATATATATATTAATA [CACACA_site2376] | 7.1 |
| TCGTAAACATATTGAAAAATATAAAAAGGGGTAATA [CACACA_negctrl_site619] | 6.91 |
| AATGGTATAATCAATACACACATAATATATATATTG [CACACA_site1658] | 6.9 |
| TTAAGATATGTATATCGTACATGACATTAAAAATTT [XGTACX_site3352] | 6.71 |
| TAAAAAAAATACAAAAGTACACAAAATTATACGTTA [XGTACX_site4656] | 7.07 |
| AAATAAATACACATATGTACATATTTTATTTTATTT [XGTACX_site2357] | 7.09 |
| CAAATATAAATATATACATGCATCTATCTATATAAA [TGCATGCA_site369] | 7 |
| AATCAAAAATCAAACGCATGTAGTATAATAGATAAG [TGCATGCA_site753] | 6.92 |
| AAATTGTAGCACCAAGCATGCTAAAAGGACATATGA [TGCATGCA_site717] | 7.5 |
| TTATTTTCCCTTTGTGCATGCAGTTTACTTTTTGTG [TGCATGCA_site993] | 7.95 |
| ACTTGTAAGAGACACACACACACACGGATATAAATA [CACACA_site6517] | 6.99 |
| ACACATATATTAAATGTGCACTGAAATATGCATATA [GTGCAC_site9936] | 9.89 |
| CAAAATAAAAATAACACACACATTTATTTATATACA [CACACA_site6679] | 6.92 |
| ATATATGTATATTTATGTACGTATTCCTGTATAGTC [XGTACX_site5763] | 7.22 |
| GGAAAAAAAAATAAATGTACGAATTAACATATCAAA [XGTACX_site5653] | 6.75 |
| ACACAAGCACACAAATGTACATATATATATATATAT [XGTACX_site5146] | 9.61 |
| GTAACATTTTAAATATATACATATAATGTATTTATA [GTGCAC_negctrl_site344] | 7.03 |
| ATTAAACCGTGGGAGCACACACACACACACACACAT [TGCATGCA_negctrl_site72] | 7.18 |
| TGTTGTATCAATTTTTGTACATAACACATATGTATA [XGTACX_site3666] | 6.93 |
| ATTAATTAAAAGGGAACACATAGAAATTATAAAACA [GTGCAC_negctrl_site420] | 7.07 |
| ATATATATATTATGGGGTACAAACATCAAAAGATTT [XGTACX_site3944] | 8.33 |

| Sequence | gcPBM binding intensity (ln) |
| --- | --- |
| TGTGTAGGGGATATTCTACTTTAAAAATAAATATAT [CACACA_negctrl_site207] | 7.26 |
| TATAAAAGATTGGAATGTACATAAGAAAAAAATATA [XGTACX_site5028] | 7.49 |
| AATCATATTAGTATGGTGCAACATATATAAATATAT | 10.8 |
| GGCCCAACTTCTTCTGACGAAAACGTAAATTGTGTG [XGTACX_negctrl_site533] | 6.89 |
| TTCAAGATTTATTATACACACATATTAATATTTATA [CACACA_site6413] | 7.16 |
| ATTCTATTATAATACACACCCAAATATTAAAAAGAT [CACACA_site2960] | 7.67 |
| CCACATGATATGATTACACACATATATATATTTACA [CACACA_site164] | 7.19 |
| TATTATATATATATATGTACATATATATGCTAAAAA [XGTACX_site5297] | 7.3 |
| GATGTTGCAAAATTCTGTACATATAAATGTATACAT [XGTACX_site5009] | 7.25 |
| TAATGAATTTAAATTTTAAAATTAATAAAAAAAATA [TGCATGCA_negctrl_site15] | 6.87 |
| CAAAATGTTTCTCATTGTACACAAAATAAATGTCCT [XGTACX_site6798] | 6.9 |
| ATACATATGTATATTTGTACATATTAGACAATCTTA [XGTACX_site6706] | 6.86 |
| ATTAGTAAATTTATATGTACACATTGTTATTTTATA [XGTACX_site1177] | 7.13 |
| ACATTTACAAGGAAAGTGCATATAAGAAAAATAAAA [GTGCAC_site9587] | 8.95 |
| TTATTCATTTTTATTTGTACATAATTATATGAAATT [XGTACX_site6389] | 6.97 |
| TTTTATATTTTATGCACACTTATAAGAAATATGTAC [CACACA_site3040] | 8.27 |
| TATTTATTAAAACACACACACACACCCACAAAATAA [CACACA_site241] | 7.39 |
| ATAATATATATATAAACACACAAAAAAAATTATATA [CACACA_site1534] | 7.13 |
| TTATGTATTCATTTTTTTTAAGCACCCCAAAATGAT [CACACA_negctrl_site1344] | 9.66 |
| ATTTTTTTTTATGATACACACTTGGATAATTAAAAC [CACACA_site4473] | 7.26 |
| ATAGGTTCCCAAAATGCACACCAATGAAATTATTTA [CACACA_site8081] | 7.25 |
| CAAGCTTTTTCCTTTACACACATTAGTTATTTATAT [CACACA_site6781] | 6.91 |

| Sequence | gcPBM binding intensity (ln) |
| --- | --- |
| ATATTATTTTAAAGTACACACATATATTAAGATATA [CACACA_site5306] | 7.32 |
| ATGATTTCACAAGACACACACATACAAATTTATATA [CACACA_site3909] | 7.3 |
| TATTTTATATTTTATGCACACTTATAAGAAATATGT [CACACA_site5647] | 9.6 |
| TTAATATATTATCTGGTGCATAAACACGTTATACCT | 9.46 |
| CAGTATTACATGAGGACACACACAAAAAAAATATAT [CACACA_site8156] | 7.08 |
| TATTAATATGGTAATACACACTAATATACTTTTGTT [CACACA_site6860] | 6.89 |
| ATATATATATATATATGTACGTATTCATAAACAACA [XGTACX_site4282] | 9.08 |
| CTGTAAAAAATATAAACACACATAGAGATATATAAA [CACACA_site6292] | 6.93 |
| TTTAATGTTACTCCTTGTACACAAAATAGTGTTATA [XGTACX_site8416] | 7.04 |
| TAAGTATATTTTATATGTACTTATATATTTAATTTT [XGTACX_site4615] | 6.88 |
| AACAAATAAAAAAAAATAAAAATAAAAATAAAAAAA [XGTACX_negctrl_site451] | 6.79 |
| TTTAAAATTATAAGGATTAAAAAAAAAAAAAATAAA [CACACA_negctrl_site114] | 6.63 |
| AAGAATTATATTAATAGTACATATATATTAATTTAT [XGTACX_site5713] | 7.03 |
| TTATTTATGAAGTATACACACAATATAGATTTATAT [CACACA_site6703] | 6.96 |
| TTTTGTTATTATAAATAGTAACATTTGTGAATATAT [TGCATGCA_negctrl_site132] | 6.86 |
| AAGACATTTTTTTGTTGTACGTCTTCATTTATTGTA [XGTACX_site2890] | 6.98 |
| ATAATGAAAACAAGCACACATACATAAAATAAAATA [CACACA_site3257] | 7.04 |
| ATGGAAGGATAATAAAAACCTTTACCTTTCTGTTTA [GTGCAC_negctrl_site380] | 6.63 |
| ATAAATTTTTAAACAGCACACATAAATATAATATAT [CACACA_site8691] | 7.06 |
| AATATTACAATTTGGTGTACAGGTGCACATGCCTCA [XGTACX_site1730] | 11.5 |
| TCTACAATTTTAATTACACACTATAAAAAAGAAAGA [CACACA_site5624] | 6.98 |
| TAGCTTATAAGATATGCACACACAACACTTACAAAA [CACACA_site8174] | 7.45 |

From the supplement of paper PMC11417369
